Measurements: PubChem BioAssay (NCATS)
Where “and” joins values, the source holds several entries; their conditions need not be identical. Equal values may be shown once. Some of the results follow. Further columns of the screen follow, without active or inactive calls. Compounds called inactive in the main read-out are mostly missing here.

test: qHTS Assay for Lipid Storage Modulators (AID 1519); conditions: Drosophila S3 cells, BODIPY lipid droplet/cell ratio, laser cytometry; measured here: lipid channel max response; cells loaded with oleic acid
Procedure, shortened: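 Cells seeded at 5,000 per well were treated with compounds over a concentration series and loaded with oleic acid (400 uM, as added). Lipid droplet fluorescence (488 nm excitation, 500-530 nm channel) was read by laser-scanning cytometry and normalized to 20 uM Triacsin C.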

Row | Compound | max response
1 | C[C@@H](C(=O)O)c1ccc(-c2ccccc2)c(F)c1 | 45.9%
2 | CN(C(=O)Cc1ccc(Cl)c(Cl)c1)[C@H](CN1CCCC1)c1cccc(N=C=S)c1 | 113%
3 | COc1cc2c(cc1OC)[C@@H]1C(=O)c3ccc4c(c3OC1CO2)CC(C(C)C)O4 (some centres undefined) | -87.4%
4 | CN(C)C(=O)Oc1cccc([N+](C)(C)C)c1 | 12%
5 | Ic1cncc(OC[C@@H]2CCN2)c1 | 83.4%
6 | NC(=O)CN1CCCC1=O | 20.9%
7 | COc1ccc(NC(=O)N2CCCC3(CCN(C(=O)Oc4ccccc4)CC3)C2)cc1 | 18.8%
8 | C=CCN1C[C@H](C)N([C@H](c2ccc(C(=O)N(CC)CC)cc2)c2cccc(O)c2)C[C@H]1C | 101%
9 | C[C@@H]1O[C@H](C[N+](C)(C)C)CS1 | 47.4%
10 | CC(=O)N1CCN(c2ccc(OC[C@@H]3CO[C@@](Cn4ccnc4)(c4ccc(Cl)cc4Cl)O3)cc2)CC1 | -39.6%
11 | COC(=O)/C(C)=C\CC12OC(C)(C)C3CC(C=C4C(=O)c5c(OC)c6c(c(CC=C(C)C)c5OC431)OC(C)(CCC=C(C)C)C=C6)C2=O (centres undefined) | -113%
12 | C=C1CCC(O)C/C1=C\C=C1/CCCC2(C)C1CCC2C(C)CCCC(C)C (centres undefined) | 90.6%
13 | COc1ccc2c3c([nH]c2c1)C(C)=NCC3 | -31.4% and 144%
14 | Clc1ccc(COC(Cn2ccnc2)c2ccc(Cl)cc2Cl)c(Cl)c1 (centres undefined) | -42.9%
15 | NCCCP(=O)(O)CC1CCCCC1 | 49.5%
16 | CC1CC[C@@]2(OC1)O[C@@H]1[C@@H](O)[C@H]3C4CC[C@H]5C[C@@H](O[C@@H]6O[C@H](CO)[C@H](O[C@@H]7O[C@H](CO)[C@@H](O)[C@H](O[C@@H]8OC[C@@H](O)[C@H](O)[C@H]8O)[C@H]7O[C@@H]7O[C@H](CO)[C@@H](O)[C@H](O[C@@H]8O[C@H](CO)[C@@H](O)[C@H](O)[C@H]8O)[C@H]7O)[C@H](O)[C@H]6O)[C@H](O)C[C@]5(C)C4CC[C@]3(C)[C@H]1[C@@H]2C (some centres undefined) | 99.7%
17 | Cc1c(C(=O)c2ccc3ccccc3c2)c2cccc3c2n1[C@H](CN1CCOCC1)CO3 | 102%
18 | CC1=NCCc2c1[nH]c1cc(O)ccc21 | 117%
19 | COc1cc2c(cc1OC)-c1c(OC)c(OC)c(C=O)c3c1[C@H](C2)N(C)CC3 | 43.2%
20 | CCCCCCCCCCCCCC(=O)OC1C(C)[C@@]2(O)C(C=C(CO)C[C@]3(O)C(=O)C(C)=C[C@H]23)[C@@H]2C(C)(C)[C@]12OC(C)=O (some centres undefined) | 50.3%

Row | Compound | max response
21 | CN(C)C(=O)Oc1ccc[n+](C)c1 | 62.2% and 56.5%
22 | c1cc2cc(c1)C[n+]1ccc(c3ccccc31)NCc1ccc(cc1)CNc1cc[n+](c3ccccc13)C2 | 18.8%
23 | COc1cc2c(cc1O)-c1c(O)c(OC)cc3c1[C@H](C2)N(C)CC3 | 81.8%
24 | NC(=NCCc1ccc(I)cc1)SCCCc1cnc[nH]1 | 128%
25 | CN1Cc2ccccc2[C@@H]2c3cccc4[nH]cc(c34)C[C@H]21 | -0.504%
26 | NC[C@H](CP(=O)(O)O)c1ccc(Cl)cc1 | 38.6%
27 | CN1C[C@@H](C(=O)N[C@@]2(C)O[C@]3(O)C4CCCN4C(=O)[C@@H](Cc4ccccc4)N3C2=O)C=C2c3cccc4[nH]cc(c34)C[C@@H]21 (some centres undefined) | 78.3%
28 | c1ccc(CN2CCC3(CCc4ccccc43)CC2)cc1 | 70.4%
29 | C[C@H](N)Cc1cnc[nH]1 | 73.2%
30 | COc1ccc(CC2c3cc(OC)c(OC)cc3CCN2C)cc1OC (centres undefined) | 149%
31 | COc1ccc(NC(=O)N2CC3(CCN(C(=O)Oc4ccccc4)CC3)C2)cc1 | 30.6%
32 | C=C(C)CN1CC[C@@]23c4c5ccc(O)c4O[C@H]2c2[nH]c4ccccc4c2C[C@]3(O)[C@@H]1C5 | 45.1%
33 | CN1CCN(C(=O)O[C@@H]2c3nccnc3C(=O)N2c2ccc(Cl)cn2)CC1 | 37.1%
34 | CN(C)C(=O)Oc1cc(OC(=O)N(C)C)cc(C(O)CNC(C)(C)C)c1 (centres undefined) | 41.9%
35 | O=C1Nc2cc(Cl)c(Cl)cc2N2CCNC[C@H]12 | 101%
36 | CS(=O)c1ccc(-c2nc(-c3ccc(F)cc3)c(-c3ccncc3)[nH]2)cc1 (centres undefined) | 118% and 121%
37 | CC(C)=CCCC1(C)C=Cc2c(O)c3c(c(CC=C(C)C)c2O1)OC12C(=CC4CC1C(C)(C)OC2(C/C=C(/C)C(=O)O)C4=O)C3=O (centres undefined) | -81.9%
38 | COc1cc2c(c(OC)c1OC)-c1ccc(OC)c(=O)cc1[C@H](NC(C)=O)CC2 | 63.1%
39 | CCCN1CCC[C@H](c2cccc(O)c2)C1 | -49%
